# Data reported in patent EP0243717A1 (priority 1986, dated 1987).
# Where two headings read alike, the source gives them in different places.
# Legend:
# Assay in all cases: microbe, parasite or virus in culture
# [1] = test system: Trichophyton interdigitale KF 62; settings: Medium E
# From the text: (§1) For reference, the minimum growth inhibition concentrations (MIC) to various bacteria of above five drugs and Lankacidin C are shown in Table 3.
# [2] = test system: Treponema hyodysenteriae DJ 70 P-3; settings: Medium F
# From the text: as §1
# Aspergillus niger KF-105 = settings: Medium E
# From the text: as §1
# [3] = test system: Escherichia coli KB 213 (NIHJ); settings: Medium A
# From the text: as §1
# Saccharomyces sake KF 26 = settings: Medium E
# From the text: as §1
# [4] = test system: E. coli KB 176 (NIHJ JC-2); settings: Medium A
# From the text: as §1
# [5] = test system: M. gallisepticum KB 171 (S-6); settings: Medium D
# From the text: as §1
# [6] = test system: Proteus vulgaris KB 127 (IFO 3167); settings: Medium A
# From the text: as §1
# M. pneumoniae KB-173 = settings: Medium D
# From the text: as §1
# [7] = test system: Bacillus subtilis KB 211 (ATCC 6633); settings: Medium A
# From the text: as §1
# [8] = test system: Mycobacterium smegmatis KB 42 (ATCC 607); settings: Medium A
# From the text: as §1
# [9] = test system: E. coli KB 198 (ML^r,LCM^s)
# From the text: as §1
# [10] = test system: C. difficile KB 258 (ATCC 9689); settings: Medium B
# From the text: as §1
# [11] = test system: S. cerevisiae KF 237 (ATCC 9763); settings: Medium E
# From the text: as §1
# [12] = test system: Staphylococcus aureus KB 210 (ATCC 6538p); settings: Medium A
# From the text: as §1
# [13] = test system: Mycoplasma gallisepticum KB 170 (KP-13); settings: Medium D
# From the text: as §1
# [14] = test system: pasteurella hemolytica KB 281; settings: for MIC: Medium C
# From the text: as §1
# [15] = test system: Haemophilus pleuropneumoniae KB 282; settings: for MIC: Medium C
# From the text: as §1
# S. aureus KB 285 (MRSA) = test system: S. aureus KB 285 (MRSA)
# From the text: as §1
# [16] = test system: Penicillium herquei KE 227 (IFO 4647); settings: Medium E
# From the text: as §1
# [17] = test system: Mucor racemosus KF 223 (IFO 4581); settings: Medium E
# From the text: as §1
# [18] = test system: B. cereus KB 143 (IFO 3001); settings: Medium A
# From the text: as §1
# S. aureus KB 283 (MRSA) = test system: S. aureus KB 283 (MRSA)
# From the text: as §1
# [19] = test system: Micrococcus luteus KB 212 (ATCC 9341); settings: Medium A
# From the text: as §1
# [20] = test system: B. megaterium KB 144 (IFO 12108); settings: Medium A
# From the text: as §1
# [21] = test system: Acholeplasma laidlawii KB 174 (PG-8); settings: Medium D
# From the text: as §1
# [22] = test system: S. aureus KB 34 (FDA 209p); settings: Medium A
# From the text: as §1
# [23] = test system: M. gallisepticum KB 172 (333-P); settings: Medium D
# From the text: as §1
# [24] = test system: A. laidlawii KB 175 (Bm-1); settings: Medium D
# From the text: as §1
# [25] = test system: Fusobacterium varium KB 234 (ATCC 8501); settings: Medium B
# From the text: as §1
# Candida albicans KF-1 = settings: Medium E
# From the text: as §1
# [26] = test system: Klebsiella pneumoniae KB 214 (IFO 10031); settings: Medium A
# From the text: as §1
# [27] = test system: Pseudomonas aeruginosa KB 115 (IFO 3080); settings: Medium A
# From the text: as §1
# [28] = test system: Treponema hyodysenteriae B 78; settings: Medium F
# From the text: as §1
# [29] = test system: S. aureus KB 199 (ML^r,TC^r)
# From the text: as §1
# [30] = Trichophyton interdigitale, KF62, read-out: MIC
# [31] = Brachyspira hyodysenteriae, DJ70P3, read-out: MIC
# [32] = Aspergillus niger, KF105, read-out: MIC
# [33] = Escherichia coli, read-out: MIC
# [34] = Saccharomyces, KF26, read-out: MIC
# [35] = Escherichia coli, NIHJJC2, read-out: MIC
# [36] = Mycoplasmoides gallisepticum, read-out: MIC
# [37] = Proteus vulgaris, IFO3167, read-out: MIC
# [38] = Mycoplasmoides pneumoniae, KB173, read-out: MIC
# [39] = Bacillus subtilis, ATCC6633, read-out: MIC
# [40] = Mycolicibacterium smegmatis, ATCC607, read-out: MIC
# [41] = Clostridioides difficile, ATCC9689, read-out: MIC
# [42] = Saccharomyces cerevisiae, ATCC9763, read-out: MIC
# [43] = Staphylococcus aureus, ATCC6538P, read-out: MIC
# [44] = Pasteurella, KB281, read-out: MIC
# [45] = Actinobacillus pleuropneumoniae, KB282, read-out: MIC
# [46] = Penicillium herquei, IFO4647, read-out: MIC
# [47] = Mucor racemosus, IFO4581, read-out: MIC
# [48] = Bacillus cereus, IFO3001, read-out: MIC
# [49] = Micrococcus luteus, ATCC9341, read-out: MIC
# [50] = Priestia megaterium, IFO12108, read-out: MIC
# [51] = Acholeplasma laidlawii, read-out: MIC
# [52] = Staphylococcus aureus, FDA209P, read-out: MIC
# [53] = Fusobacterium varium, ATCC8501, read-out: MIC
# [54] = Candida albicans, KF1, read-out: MIC
# [55] = Klebsiella pneumoniae, IFO10031, read-out: MIC
# [56] = Pseudomonas aeruginosa, IFO3080, read-out: MIC
# [57] = Brachyspira hyodysenteriae, B78, read-out: MIC
smiles,measurement,setting,value
"C=C[C@]1(C)C[C@@H](OC(=O)CSCCN(CC)CC)[C@]2(C)[C@H](C)CC[C@]3(CCC(=O)[C@H]32)[C@@H](C)[C@@H]1O [Dynamutilin, tiamulin]",MIC,[1]; [30],> 100 µg/mL
same,MIC,[2]; [31],0.2 µg/mL
same,MIC,Aspergillus niger KF-105; [32],> 100 µg/mL
same,MIC,[3]; [33],> 100 µg/mL
same,MIC,Saccharomyces sake KF 26; [34],> 100 µg/mL
same,MIC,[4]; [35],> 100 µg/mL
same,MIC,[5]; [36],< 0.05 µg/mL
same,MIC,[6]; [37],> 100 µg/mL
same,MIC,M. pneumoniae KB-173; [38],< 0.05 µg/mL
same,MIC,[7]; [39],> 100 µg/mL
same,MIC,[8]; [40],> 100 µg/mL
same,MIC,[9]; Escherichia coli,6.25 µg/mL
same,MIC,[10]; [41],12.5 µg/mL
same,MIC,[11]; [42],> 100 µg/mL
same,MIC,[12]; [43],0.78 µg/mL
same,MIC,[13]; [36],< 0.05 µg/mL
same,MIC,[14]; [44],> 50 µg/mL
same,MIC,[15]; [45],50 µg/mL
same,MIC,"S. aureus KB 285 (MRSA); Staphylococcus aureus, MRSA",3.12 µg/mL
same,MIC,[16]; [46],> 100 µg/mL
same,MIC,[17]; [47],> 100 µg/mL
same,MIC,[18]; [48],> 100 µg/mL
same,MIC,"S. aureus KB 283 (MRSA); Staphylococcus aureus, MRSA",3.12 µg/mL
same,MIC,[19]; [49],0.78 µg/mL
same,MIC,[20]; [50],100 µg/mL
same,MIC,[21]; [51],< 0.05 µg/mL
same,MIC,[22]; [52],3.12 µg/mL
same,MIC,[23]; [36],< 0.05 µg/mL
same,MIC,[24]; [51],< 0.05 µg/mL
same,MIC,[25]; [53],> 100 µg/mL
same,MIC,Candida albicans KF-1; [54],> 100 µg/mL
same,MIC,[26]; [55],100 µg/mL
same,MIC,[27]; [56],> 100 µg/mL
same,MIC,[28]; [57],0.2 µg/mL
same,MIC,[29]; Staphylococcus aureus,3.12 µg/mL
"CC(=O)[C@H]1O[C@@H](Oc2ccc(/C=C(\C)C(=O)N[C@@H]3[C@H](O)[C@@H](O)[C@H]4OCO[C@H]4[C@@H]3O)cc2O)[C@@H](O)[C@@H]1O [Hygromycin A, hygromycin A]",MIC,[1],>100 µg/mL
same,MIC,[2],3.12 µg/mL
same,MIC,Aspergillus niger KF-105,>100 µg/mL
same,MIC,[3],100 µg/mL
same,MIC,Saccharomyces sake KF 26,>100 µg/mL
same,MIC,[4],>100 µg/mL
same,MIC,[5],0.78 µg/mL
same,MIC,[6],50 µg/mL
same,MIC,M. pneumoniae KB-173,0.78 µg/mL
same,MIC,[7],>100 µg/mL
same,MIC,[8],>100 µg/mL
same,MIC,[9]; Medium A,12.5 µg/mL
same,MIC,[10],25 µg/mL
same,MIC,[11],>100 µg/mL
same,MIC,[12],50 µg/mL
same,MIC,[13],0.78 µg/mL
same,MIC,[14],25 µg/mL
same,effective against Pasteurella haemolytica,[14]; in our screening systems,effective
same,MIC,[15],12.5 µg/mL
same,effective against Haemophilus pleuropneumoniae KB282,[15]; in our screening systems,effective
same,MIC,S. aureus KB 285 (MRSA); Medium A,50 µg/mL
same,MIC,[16],>100 µg/mL
same,MIC,[17],>100 µg/mL
same,MIC,[18],>100 µg/mL
same,MIC,S. aureus KB 283 (MRSA); Medium A,50 µg/mL
same,MIC,[19],25 µg/mL
same,MIC,[20],100 µg/mL
same,MIC,[21],0.78 µg/mL
same,MIC,[22],50 µg/mL
same,MIC,[23],1.56 µg/mL
same,MIC,[24],0.78 µg/mL
same,MIC,[25],25 µg/mL
same,MIC,Candida albicans KF-1,>100 µg/mL
same,MIC,[26],50 µg/mL
same,MIC,[27],>100 µg/mL
same,MIC,[28],6.25 µg/mL
same,MIC,[29]; Medium A,50 µg/mL
CCC[C@@H]1C[C@@H](C(=O)N[C@@H]([C@H]2O[C@H](SC)[C@H](O)[C@@H](O)[C@H]2O)[C@@H](C)O)N(C)C1 [Lincomycin],MIC,[1]; [30],> 100 µg/mL
same,MIC,[2]; [31],0.2 µg/mL
same,MIC,Aspergillus niger KF-105; [32],> 100 µg/mL
same,MIC,[3]; [33],> 100 µg/mL
same,MIC,Saccharomyces sake KF 26; [34],> 100 µg/mL
same,MIC,[4]; [35],> 100 µg/mL
same,MIC,[5]; [36],12.5 µg/mL
same,MIC,[6]; [37],> 100 µg/mL
same,MIC,M. pneumoniae KB-173; [38],25 µg/mL
same,MIC,[7]; [39],50 µg/mL
same,MIC,[8]; [40],> 100 µg/mL
same,MIC,[9]; Escherichia coli,3.12 µg/mL
same,MIC,[10]; [41],6.25 µg/mL
same,MIC,[11]; [42],> 100 µg/mL
same,MIC,[12]; [43],1.56 µg/mL
same,MIC,[13]; [36],12.5 µg/mL
same,MIC,[14]; [44],> 100 µg/mL
same,MIC,[15]; [45],50 µg/mL
same,MIC,"S. aureus KB 285 (MRSA); Staphylococcus aureus, MRSA",12.5 µg/mL
same,MIC,[16]; [46],> 100 µg/mL
same,MIC,[17]; [47],> 100 µg/mL
same,MIC,[18]; [48],25 µg/mL
same,MIC,"S. aureus KB 283 (MRSA); Staphylococcus aureus, MRSA",6.25 µg/mL
same,MIC,[19]; [49],0.4 µg/mL
same,MIC,[20]; [50],> 100 µg/mL
same,MIC,[21]; [51],12.5 µg/mL
same,MIC,[22]; [52],3.12 µg/mL
same,MIC,[23]; [36],> 50 µg/mL
same,MIC,[24]; [51],12.5 µg/mL
same,MIC,[25]; [53],12.5 µg/mL
same,MIC,Candida albicans KF-1; [54],> 100 µg/mL
same,MIC,[26]; [55],> 100 µg/mL
same,MIC,[27]; [56],> 100 µg/mL
same,MIC,[28]; [57],1.56 µg/mL
same,MIC,[29]; Staphylococcus aureus,> 100 µg/mL
